Assay results reported in the supplement of paper PMC4166925.
± gives the standard deviation of the averaged measurements. In all, about 33,000 sequences were measured (“E-score (dimensionless, -0.5 to 0.5)”: median about -0.046, highest 2% from about 0.36 on). This is one part of the list.

Tested on: T1, SpTbr T-box DNA-binding domain (GST fusion)
T1 sequence: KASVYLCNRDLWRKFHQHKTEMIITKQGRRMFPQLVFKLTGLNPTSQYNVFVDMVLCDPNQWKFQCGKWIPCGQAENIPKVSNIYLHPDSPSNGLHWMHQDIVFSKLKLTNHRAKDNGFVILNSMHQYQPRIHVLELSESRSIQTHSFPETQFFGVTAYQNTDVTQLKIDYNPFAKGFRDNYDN
Experiment: PBM E-score of 8-mer (E-score (dimensionless, -0.5 to 0.5)); Tbr is Tbrain of the sea star Patiria miniata (Pm) or the sea urchin Strongylocentrotus purpuratus (Sp); higher = stronger binding preference; most listed sequences are background and not binding sites
Details: the construct has about 5 more residues each side
In short: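 Universal Agilent oligonucleotide arrays, made double-stranded by primer extension, were incubated with 200 nM GST-fused Tbr T-box DNA-binding domain in PBS (pH 7.5). The protein was expressed in BL21 E. coli at 20 °C and purified by glutathione affinity chromatography. After scanning and quantification, the Universal PBM Analysis Suite assigned an enrichment E-score to each ungapped 8-mer, averaged over duplicate arrays.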

| Sequence | PBM E-score of 8-mer |
| --- | --- |
| TACATTCA | -0.116 ± 0.014 |
| TACAGACA | 0.0916 ± 0.02 |
| GGTTTTAC | -0.168 ± 0.064 |
| CCTTCCGA | -0.115 ± 0.027 |
| TGACGACA | 0.27 ± 0.0041 |
| CCCGCGCA | 0.113 ± 0.026 |
| AACGGTAG | -0.0788 ± 0.046 |
| GCACTGGC | -0.172 ± 0.031 |
| ATGCTTAC | -0.0604 ± 0.05 |
| CTTCGAAG | 0.0724 ± 0.0063 |
| GATCGTGC | 0.111 ± 0.02 |
| GAAAAGCA | -0.0363 ± 0.0088 |
| CACCAGAC | 0.0712 ± 0.097 |
| CCGCCGCC | 0.0492 ± 0.013 |
| GCAAGCAA | 0.00941 ± 0.017 |
| AATTGGAG | -0.0967 ± 0.046 |
| CAAATTTA | -0.0277 ± 0.08 |
| CATGCGAC | 0.0885 ± 0.027 |
| ACTCGTCC | -0.0512 ± 0.025 |
| GAGCACAA | -0.0285 ± 0.11 |
| ACAGATGT | 0.152 ± 0.018 |
| GCGCGCGA | 0.316 ± 0.041 |

| Sequence | PBM E-score of 8-mer |
| --- | --- |
| ACTTGGAG | -0.0124 ± 0.013 |
| AGTCGACT | 0.0789 ± 0.039 |
| ACTATGGC | 0.0458 ± 0.028 |
| AGGTTTGC | -0.0997 ± 0.11 |
| GGTGCGCA | 0.215 ± 0.057 |
| AGTGTGGA | 0.373 ± 0.035 |
| ATTCGACG | -0.0229 ± 0.021 |
| ATACCCAC | -0.173 ± 0.07 |
| TATTCAAA | -0.239 ± 0.095 |
| GACGAAAC | 0.0311 ± 0.096 |
| ACATTCCC | -0.15 ± 0.07 |
| GCTTCACC | -0.0574 ± 0.075 |
| CTCATCAG | -0.214 ± 0.068 |
| AGGACCGA | -0.0284 ± 0.059 |
| CAGCGTGA | 0.308 ± 0.03 |
| AGGATTTA | -0.113 ± 0.038 |
| ATGTTTAG | -0.271 ± 0.095 |
| TCTCCCAA | -0.0209 ± 0.0076 |
| AGTGTCAT | 0.405 ± 0.017 |
| AAGATAAA | -0.086 ± 0.046 |
| AAGCGGTA | -0.00951 ± 0.091 |
| ACGCGAGG | 0.207 ± 0.0089 |

| Sequence | PBM E-score of 8-mer |
| --- | --- |
| CCTCTATC | -0.104 ± 0.0019 |
| ACTCCTAG | -0.0316 ± 0.012 |
| ATGACACC | 0.4599 ± 0.0031 |
| TCGGAACA | -0.07872 ± 0.00021 |
| GGGGCTGA | -0.244 ± 0.05 |
| GAGCGTCC | -0.263 ± 0.034 |
| AATGGACG | -0.11 ± 0.042 |
| AGAGTCGC | 0.16 ± 0.044 |
| GAAACCGC | 0.0468 ± 0.0075 |
| AATGTTGG | -0.0767 ± 0.091 |
| ATTTAACG | 0.027 ± 0.052 |
| AAGGGCCT | -0.224 ± 0.029 |
| CGTAGCCC | -0.302 ± 0.047 |
| ATCGATTA | -0.15 ± 0.068 |
| GCACTACA | 0.00903 ± 0.0074 |
| ACGTATCT | -0.0757 ± 0.021 |
| CCAATGCC | -0.0845 ± 0.027 |
| CACTGGGA | -0.0452 ± 0.0034 |
| TAGTTCCA | -0.0883 ± 0.023 |
| AATATCTG | -0.21 ± 0.0056 |
| AATGGTGC | 0.198 ± 0.014 |
| AGGGGGGA | -0.419 ± 0.053 |

| Sequence | PBM E-score of 8-mer |
| --- | --- |
| ATTCTTCA | 0.0621 ± 0.059 |
| CGGTACAC | -0.0277 ± 0.021 |
| GACTGATA | -0.0508 ± 0.062 |
| AGCTCCGC | -0.254 ± 0.058 |
| ACTAACGC | 0.315 ± 0.015 |
| AACAAGAC | -0.0104 ± 0.018 |
| CTGATGTC | -0.314 ± 0.053 |
| ACTGAACC | 0.00741 ± 0.065 |
| AACGGCGA | -0.0936 ± 0.074 |
| GGGCATCA | 0.00736 ± 0.085 |
| CAAAAAGC | 0.0694 ± 0.065 |
| CGCGCGGC | 0.208 ± 0.04 |
| ATCTTAAC | 0.128 ± 0.0048 |
| ATTGTCCA | 0.0125 ± 0.076 |
| AGGTTTAG | -0.0798 ± 0.046 |
| AACAATTC | -0.0144 ± 0.015 |
| TATCCCGA | -0.0114 ± 0.067 |
| CAGGTCTC | -0.0502 ± 0.00086 |
| CTATTAAA | 0.0284 ± 0.031 |
| CCTGGCAC | 0.362 ± 0.025 |
| AATTAGTG | 0.138 ± 0.039 |
| GAATCCCA | -0.069 ± 0.015 |

| Sequence | PBM E-score of 8-mer |
| --- | --- |
| TCGTTCAA | -0.192 ± 0.02 |
| AGTATAAC | 0.154 ± 0.0045 |
| CGGAGTCA | -0.0676 ± 0.013 |
| CAGGGCCG | -0.0381 ± 0.044 |
| ATTGCTGC | -0.0375 ± 0.004 |
| CAACCCTC | -0.253 ± 0.045 |
| GGTTAACA | 0.287 ± 0.012 |
| CCCGGCTA | -0.245 ± 0.0018 |
| ACCTTAGA | 0.0853 ± 0.026 |
| AGAAGCTG | -0.0752 ± 0.061 |
| ACAGATTA | 0.0261 ± 0.0076 |
| AGGATGCC | -0.118 ± 0.043 |
| AGTAGAAC | -0.0771 ± 0.051 |
| ATCATAAC | 0.0243 ± 0.004 |
| GGATCTTA | -0.164 ± 0.024 |
| CTAGAAGC | -0.0364 ± 0.056 |
| CCAGTAGA | -0.0451 ± 0.0039 |
| AGCATTCG | -0.0471 ± 0.016 |
| AGAACATC | -0.1083 ± 0.00059 |
| AATGTGCG | 0.3287 ± 0.0028 |
| ACAAAGGC | -0.0637 ± 0.024 |
| AACGTGCC | 0.0938 ± 0.0014 |
